In PubChem BioAssay AID504339 (National Center for Advancing Translational Sciences (NCATS), 2011):
Among all 390,000 compounds or so, about 17,000 (4.4%) were called active. Inconclusive means that the source gave no clear call. Such entries were picked first, then a sample of the others. The call rests on the fitted dose curve; in most records, active means well fitted inhibition curve with a large enough effect; inconclusive means small, poorly fitted or top-dose-only effect; inactive means no such curve, though single readings can be large or run the other way. Potencies of inconclusive entries are doubtful fits and often do not repeat. More than one record can exist for a structure, and the calls need not agree.

target: Lysine-specific demethylase 4A (Homo sapiens) (UniProt O75164); test: qHTS Assay for Inhibitors of JMJD2A-Tudor Domain; settings: AlphaScreen JMJD2A-Tudor / H3K4me3 peptide binding; series mostly up to 114 µM; further: nearly all actives have a fitted effect of over 50% in size
Sequence of UniProt O75164 (O75164 whole entry, looked up, the tested form may be a part): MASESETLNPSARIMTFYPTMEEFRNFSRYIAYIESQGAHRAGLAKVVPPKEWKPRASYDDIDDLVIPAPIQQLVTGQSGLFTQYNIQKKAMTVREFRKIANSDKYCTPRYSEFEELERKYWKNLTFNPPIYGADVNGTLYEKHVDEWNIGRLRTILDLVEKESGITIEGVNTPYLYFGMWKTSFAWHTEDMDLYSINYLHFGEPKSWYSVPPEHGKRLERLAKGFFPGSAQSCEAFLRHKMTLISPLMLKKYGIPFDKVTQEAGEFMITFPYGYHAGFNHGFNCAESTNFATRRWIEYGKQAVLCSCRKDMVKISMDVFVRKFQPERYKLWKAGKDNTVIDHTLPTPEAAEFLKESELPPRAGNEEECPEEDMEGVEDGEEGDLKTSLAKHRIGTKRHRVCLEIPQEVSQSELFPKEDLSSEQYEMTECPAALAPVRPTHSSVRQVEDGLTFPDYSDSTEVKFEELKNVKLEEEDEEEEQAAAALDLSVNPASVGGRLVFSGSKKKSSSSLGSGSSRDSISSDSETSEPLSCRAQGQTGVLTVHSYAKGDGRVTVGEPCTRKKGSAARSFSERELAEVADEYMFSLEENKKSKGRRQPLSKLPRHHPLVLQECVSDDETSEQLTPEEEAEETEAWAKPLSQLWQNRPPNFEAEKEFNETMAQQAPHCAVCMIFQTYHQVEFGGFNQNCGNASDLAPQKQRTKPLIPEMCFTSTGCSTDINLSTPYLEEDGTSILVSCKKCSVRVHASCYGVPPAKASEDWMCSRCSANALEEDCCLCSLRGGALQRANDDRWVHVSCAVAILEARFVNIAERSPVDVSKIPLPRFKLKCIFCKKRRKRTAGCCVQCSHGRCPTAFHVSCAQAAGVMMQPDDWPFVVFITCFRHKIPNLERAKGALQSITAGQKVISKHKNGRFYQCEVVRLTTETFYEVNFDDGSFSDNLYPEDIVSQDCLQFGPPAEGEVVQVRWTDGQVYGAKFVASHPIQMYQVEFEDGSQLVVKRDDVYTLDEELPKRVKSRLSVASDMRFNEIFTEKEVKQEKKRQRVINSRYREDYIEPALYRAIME
Potency means the concentration at half of the fitted maximal effect; tags describe the fitted curve by direction and shape.

Compound	Potency
Cn1c(SCC(=O)NCc2ccco2)nnc1-c1ccc(S(=O)(=O)N2CCOCC2)cc1	inconclusive: 56.2 µM [inhibitor, partial curve]
Oc1ccc(/C=N/Nc2cc(N3CCOCC3)nc(N3CCOCC3)n2)cc1	inconclusive: 56.2 µM [inhibitor, partial curve]
O=C(CSc1nnnn1-c1ccccc1)CC(=O)Nc1ccc(Cl)cc1	inconclusive: 89.1 µM [inhibitor, single point]
CC(C)C[C@@H](C(=O)NCc1ccco1)N1C(=O)N2CCc3c([nH]c4ccccc34)[C@@]2(C)C1=O	inconclusive: 44.7 µM [inhibitor, partial curve]
O=C1c2ccc([N+](=O)[O-])cc2S(=O)(=O)N1Cc1ccccc1	inconclusive: 50.1 µM [inhibitor, partial curve]
COc1ccc(/C=C2/SC(=S)N(CCCC(=O)Nc3cccc(O)c3)C2=O)cc1	inconclusive: 10 µM [inhibitor, partial curve]
O=C(CCc1ccccc1)N(Cc1cccnc1)c1nc2ccc(F)cc2s1	inactive
CCOCCn1ccc2c(OCC(=O)Nc3ccc(OC)c(OC)c3)cccc2c1=O	inconclusive: 20 µM [inhibitor, partial curve]
CCCCCCCC(=O)N/N=C/c1ccc([N+](=O)[O-])o1	inactive
CCCCCC(=O)Nc1nc(C)c(-c2csc(Nc3ccc(Cl)cc3)n2)s1	inconclusive: 79.4 µM [inhibitor, partial curve]
Clc1ccc(SCCCCn2cncn2)cc1	inactive
COC(=O)c1c(C)[nH]c(O)c1C=Nc1ccc(Oc2ccccc2)cc1	inconclusive: 10 µM [inhibitor, full curve, poor fit]
Cc1ccc(NC(=O)CN(C)C(=O)C(Sc2ccccc2)c2ccccc2)cc1 (stereo not given)	inconclusive: 35.5 µM [inhibitor, partial curve]
Cc1ccc(S(=O)(=O)N2C(=O)[C@@H]3Cc4ccccc4CN3C2=O)cc1	active: 7.94 µM
O=C(c1ccc([N+](=O)[O-])cc1)n1nc(-c2ccccc2)nc1NCc1ccccc1	inconclusive: 50.1 µM [inhibitor, partial curve]
COc1ccc(/C=N/NC(=O)CNC(=O)c2ccc3c(c2)OCCO3)c(C(=O)O)c1OC	inactive
O=C(N=Nc1c(O)[nH]c2ccccc12)c1ccccc1NS(=O)(=O)c1cccs1	inconclusive: 28.2 µM [inhibitor, single point]
O=S(=O)(c1cccs1)N1CCN(CC(O)COC2CCCc3ccccc32)CC1 (stereo not given)	active: 3.98 µM
COc1ccc(OC)c(CCNC(=O)c2cnn(-c3ccccc3)c2-n2cccc2)c1	inconclusive: 56.2 µM [inhibitor, partial curve]
COc1ccc(CCNCC(=O)Nc2c(C)cc(C)cc2C)cc1OC	inactive
COc1cc(/C=N/NC(=O)c2cc(-c3cccn3C)n[nH]2)cc(OC)c1OC	inconclusive: 56.2 µM [inhibitor, partial curve]
Cc1ccccc1C1c2[nH]c3ccccc3c2CCN1C(=O)c1ccc(=O)n(C)n1 (stereo not given)	inconclusive: 50.1 µM [inhibitor, partial curve]
O=C(NCc1ccccn1)C1(C(F)(F)F)C/C(=C\CCO)CCCO1 (stereo not given)	active: 28.2 µM
COc1ccccc1NC(=S)N/N=C1\CC(C)(C)Oc2ccc(O)cc21	inactive

Compound	Potency
COc1cc(/C=C2\SC(=S)N(c3cccnc3)C2=O)ccc1O	inactive
CSc1nc(NCC(C)C)c2c3c(sc2n1)CN(C)CC3	inactive
Cc1cc(N(CCO)CCO)ccc1C(c1ccc(N(CCO)CCO)cc1C)c1ccccc1Cl	active: 28.2 µM
O=C(CSc1ncn(-c2ccccc2)n1)Nc1ccc2c(c1)OCO2	active: 89.1 µM
O=C(CN1CCN(Cc2cccc(Cl)c2)C1=O)NCc1ccccn1	inactive
CC(=O)N1CCCc2cc(S(=O)(=O)N3CCC(C(=O)N(C)C4CCCCC4)CC3)ccc21	inactive
Cc1ccccc1C(=O)Nc1nnc(S(=O)(=O)N2CCc3ccccc32)s1	inactive
CCC(=NCCc1c(C)[nH]c2ccc(C)cc12)C1=C(O)CC(c2ccccc2)CC1=O (stereo not given)	inconclusive: 25.1 µM [inhibitor, full curve, poor fit]
COc1ccc(C(C(=O)Nc2ccc(C(C)C)cc2)N(C)C(=O)c2ccc(=O)[nH]c2)cc1 (stereo not given)	active: 50.1 µM
NC(=S)NN=C1CCCC(C(F)(F)F)C1 (stereo not given)	inconclusive: 2.51 µM [inhibitor, partial curve, poor fit]
Cc1ccc(/C=N/n2c(C)nnc2C)cc1	inactive
O=C(C1=C[C@H](c2ccccc2)C[C@H](OCc2ccc(CO)cc2)O1)N1CCN(Cc2ccc3c(c2)OCO3)CC1	inconclusive: 56.2 µM [inhibitor, partial curve, poor fit]
Cc1cc2ccccc2n1CCNC(=O)COc1ccc2ccccc2c1	inconclusive: 50.1 µM [inhibitor, partial curve]
COC(=O)c1c(-c2ccc(OC)cc2)sc2ccc(N3CCOCC3)cc12	inconclusive: 44.7 µM [inhibitor, single point]
Cc1ccc(N=C2C(=O)Nc3c(C)cccc32)cc1	inactive
CC1CCN(c2oc(-c3ccccc3Cl)nc2C#N)CC1	inconclusive: 79.4 µM [inhibitor, partial curve]
COc1ccc(S(=O)(=O)N2CCCCC2)cc1NC(=O)Cc1c[nH]c2ccccc12	inconclusive: 31.6 µM [inhibitor, partial curve]
NC(=O)C(c1ccc(Br)cc1)c1ccc(C(=O)c2ccccc2)cc1 (stereo not given)	inconclusive: 100 µM [inhibitor, partial curve]
CN(C)c1ccc(NC(=O)c2cn(-c3ccccc3)nc2-c2cccs2)cc1	active: 14.1 µM
Cc1cc(C(=O)COC(=O)c2ccccc2O)c(C)n1CC1CCCO1 (stereo not given)	inconclusive: 63.1 µM [inhibitor, partial curve, poor fit]
O=C(O)C1CCCCC1C(=O)Nc1ccc(-c2ccccc2)cc1 (stereo not given)	inconclusive: 39.8 µM [inhibitor, single point]
CCCNC(=O)NC(=O)CSc1ccc(C)cc1C	inactive
C[N+]1(CC(=O)OCCCC2CCCCC2)CCCC1	inconclusive: 15.8 µM [inhibitor, full curve]
Cc1cc(C)nc(N2N=C(C(C)(C)C)CC2=O)n1	inconclusive: 56.2 µM [inhibitor, partial curve]

Compound	Potency
CCN(CCCNC(=O)C1CCN(S(=O)(=O)N2CCOCC2)CC1)c1cccc(C)c1	inconclusive: 79.4 µM [inhibitor, single point]
COC(C[C@@H]1O[C@@H]1[C@@H](O)[C@H](C)OCc1ccccc1)OC	inactive
S=c1[nH]c(-c2ccc(Cl)cc2)cs1	inconclusive: 70.8 µM [inhibitor, single point]
CC(C)NC(=O)COc1ccc(/C=N/NS(=O)(=O)c2ccccc2)cc1	inactive
Cc1ccc(NC(=O)CN(C)C(=O)c2cccc(Br)c2)cc1	inconclusive: 25.1 µM [inhibitor, full curve]
N#C/C(=C\c1ccc(O)c(O)c1)C(=O)NCCCc1ccccc1	active: 44.7 µM
Cn1nc(C(=O)O)c(=O)n(C)c1=O	active: 89.1 µM
Cc1cc(N/N=C/c2ccc(O)cc2)c2cccc(C)c2n1	inconclusive: 56.2 µM [inhibitor, partial curve]
COc1ccc(Cn2ccnc2SCC(=O)Nc2ccc3c(c2)OCO3)cc1	inconclusive: 44.7 µM [inhibitor, partial curve]
COCCn1nnnc1C(c1cccs1)N1CCCC(C)C1 (stereo not given)	inactive
CC1=C(C(=O)OCC2CCCO2)C(c2ccncc2)C2=C(CC(C)(C)CC2=O)N1 (stereo not given)	inconclusive: 89.1 µM [inhibitor, single point]
NC(=O)c1ccc(-c2nnn(CC(=O)N(C3CCCCC3)C3CCS(=O)(=O)C3)n2)cc1 (stereo not given)	inactive
CCCC[n+]1c(-c2ccc(Cl)cc2Cl)csc1Nc1ccccc1	active: 70.8 µM
CCOC(=O)c1cnn2c(N)c(C#N)cnc12	inconclusive: 39.8 µM [inhibitor, partial curve]
Cc1ccc(SCc2[nH]nc3c2C2(CCSCC2)C(C#N)=C(N)O3)cc1	inconclusive: 56.2 µM [inhibitor, partial curve]
COc1ccccc1/C=C/C(=O)OC(C)CN1CCOCC1 (stereo not given)	inconclusive: 79.4 µM [inhibitor, partial curve]
C/C(=N\NC(=O)CN(c1ccccc1Br)S(C)(=O)=O)c1ccc2c(c1)OCCO2	inconclusive: 89.1 µM [inhibitor, partial curve]
COc1ccc2[nH]c(C(=O)O)c(NS(=O)(=O)c3ccc(OC)c(OC)c3)c2c1	inconclusive: 44.7 µM [inhibitor, partial curve]
COCCNc1ccc([N+](=O)[O-])cc1C(=O)NC1CCCc2ccccc21 (stereo not given)	inconclusive: 39.8 µM [inhibitor, full curve, poor fit]
CCCN1CCN(C(=O)C2CCN(S(=O)(=O)c3c(C)noc3/C=C/c3ccc(C)cc3)CC2)CC1	inconclusive: 56.2 µM [inhibitor, partial curve]
Cc1cccc(C)c1NC(=O)c1nc(S(C)(=O)=O)ncc1N(Cc1ccc(C(C)(C)C)cc1)Cc1ccco1	inconclusive: 63.1 µM [inhibitor, single point]
Cc1ccc2cc(C)c3nnc(SCc4ccc(C(=O)O)cc4)n3c2c1C	active: 39.8 µM
